For some of these results: Shown are results outside the selection of strong results, which stands elsewhere. This is a selection; strong and weak results do not stand in their true shares.
Columns and labels:
Details in all cases: concentration: 1 μM,replicates: in singlicate; n = 1
ARK5 = tested on: T1, ARK5
T1 construct: gene NUAK1

ASK1 = tested on: T2, ASK1
T2 construct: gene MAP3K5

ASK2 = tested on: T3, ASK2
T3 construct: gene MAP3K6

AURKA = tested on: AURKA
AURKB = tested on: AURKB
AURKC = tested on: AURKC
AXL = tested on: AXL
BIKE = tested on: T4, BIKE
T4 construct: gene BMP2K

BLK = tested on: BLK
BMPR1A = tested on: BMPR1A
BMPR1B = tested on: BMPR1B
BMPR2 = tested on: BMPR2
BMX = tested on: BMX
BRAF = tested on: BRAF
BRK = tested on: T5, BRK
T5 construct: gene PTK6

BRSK1 = tested on: BRSK1
BRSK2 = tested on: BRSK2
BTK = tested on: BTK
BUB1 = tested on: BUB1
CAMK1B = tested on: CAMK1B
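Also: KINOMEscan kinase panel screen.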

| Compound | %Inh (ARK5) | %Inh (ASK1) | %Inh (ASK2) | %Inh (AURKA) | %Inh (AURKB) | %Inh (AURKC) | %Inh (AXL) | %Inh (BIKE) | %Inh (BLK) | %Inh (BMPR1A) | %Inh (BMPR1B) | %Inh (BMPR2) | %Inh (BMX) | %Inh (BRAF) | %Inh (BRK) | %Inh (BRSK1) | %Inh (BRSK2) | %Inh (BTK) | %Inh (BUB1) | %Inh (CAMK1B) |
| --- | --- | --- | --- | --- | --- | --- | --- | --- | --- | --- | --- | --- | --- | --- | --- | --- | --- | --- | --- | --- |
| O=C1NC(=O)C(c2ccc(Cl)cc2)=C1Nc1ccccc1 [SB-317661] | 0% | 0% | 0% | 19% | 45% | 0% | 0% | 0% | 0% | 0% | 45% | 28% | 0% | 24% | 0% | 0% | 5% | 0% | 54% | 0% |
| O=C1NC(=O)C(c2ccccc2)=C1Nc1ccc(Cl)c(C(=O)O)c1 [SB-390532] | 0% | 8% | 0% | 10% | 32% | 0% | 0% | 0% | 20% | 0% | 0% | 31% | 4% | 0% | 15% | 0% | 0% | 0% | 57% | 29% |
| O=C(O)c1ccc(-c2nc(-c3ccc(F)cc3)c(-c3ccncc3)[nH]2)cc1 [SB-202620] | 46% | 23% | 0% | 40% | 32% | 0% | 19% | 0% | 36% | 15% | 33% | 21% | 0% | 89% | 0% | 0% | 17% | 0% | 11% | 0% |
| O=C1NC(=O)C(c2ccc(Cl)cc2)=C1Nc1cccc(C(=O)O)c1 [SB-360737] | 3% | 12% | 15% | 1% | 15% | 12% | 0% | 18% | 0% | 4% | 0% | 19% | 0% | 3% | 2% | 0% | 0% | 0% | 39% | 26% |
| COc1ccc(C2=C(Nc3cccc(Cl)c3)C(=O)NC2=O)cc1 [SB-326892] | 100% | 4% | 0% | 1% | 0% | 20% | 2% | 24% | 6% | 10% | 0% | 5% | 15% | 0% | 0% | 4% | 22% | 0% | 0% | 0% |
| O=C1NC(=O)C(c2ccccc2)=C1Nc1cc(Cl)c(O)c(Cl)c1 [SB-390530] | 0% | 0% | 0% | 9% | 13% | 23% | 0% | 33% | 0% | 21% | 22% | 45% | 0% | 0% | 0% | 0% | 0% | 26% | 0% | 7% |
| O=C1NC(=O)C(c2ccccc2Cl)=C1Nc1cccc(C(=O)O)c1 [SB-390526] | 0% | 9% | 5% | 8% | 15% | 0% | 0% | 0% | 14% | 0% | 0% | 1% | 12% | 0% | 12% | 9% | 0% | 4% | 9% | 39% |
| O=C1NC(=O)C(c2ccc(Cl)cc2)=C1Nc1ccc(O)c(Cl)c1 [SB-405367] | 0% | 0% | 0% | 15% | 1% | 0% | 29% | 0% | 0% | 12% | 0% | 11% | 0% | 0% | 4% | 7% | 0% | 0% | 0% | 0% |

From publication PMC5540273 (PLoS ONE, 2017)
